The record followed here is article PMC6212790.

This is one part of the list. At the low end of the ranking, values are background and their order means little.

In this assay the target is T1, GST-Rok (full length) (UniProt O34857).
T1 sequence: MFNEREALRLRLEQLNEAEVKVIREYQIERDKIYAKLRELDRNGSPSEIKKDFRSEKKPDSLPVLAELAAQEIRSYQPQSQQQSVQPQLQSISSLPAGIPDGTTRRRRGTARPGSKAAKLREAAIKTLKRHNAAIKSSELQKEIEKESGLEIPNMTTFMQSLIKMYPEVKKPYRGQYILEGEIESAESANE
The assay can be described thus: protein binding microarray.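 Note: rank score from −0.5 (least bound) to 0.5 (best bound).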 The settings on record: Rok is a gene silencer of Bacillus subtilis; high values mean tight binding; most listed sequences are background and not binding sites; double strand, one strand shown.
CCACATCC: the binding signal is -0.0738 E-score. As for GATGCTGA, the figure is -0.195 E-score. Regarding ACCTTTCC, the binding signal was -0.149 E-score. Sequence CAGGAATA registered a binding signal of -0.0271 E-score. Regarding AACGTTAC, the binding signal was -0.0148 E-score. Sequence ACTTTGAC yielded a binding signal of -0.0452 E-score. As for CTGATTCC, the figure is -0.0756 E-score; as for ACCGGTCA, 0.047 E-score; as for GAATCGCC, -0.0242 E-score. ACAATACA gave a binding signal of 0.0994 E-score. The sequence GTCTTAAA gave a binding signal of -0.0475 E-score. For the sequence CGGAGCGC, the binding signal is -0.158 E-score. AGGGCCGG showed a binding signal of -0.344 E-score. As for TCATATGA, the figure is 0.125 E-score. The value for CGATTACG was -0.158 E-score. As to GAAACTCA, the binding signal was -0.01 E-score. AAAAATGG registered a binding signal of 0.012 E-score. Turning to AAAGTCTC, the binding signal is 0.0185 E-score.

On to GGAGGACC, for which the binding signal is -0.28 E-score. Turning to CAACGGTC, the binding signal was -0.298 E-score. As to ATTTCTCG, the binding signal was 0.153 E-score. As for CTCGTATC, the binding signal is -0.104 E-score. As for GATCTAAA, the binding signal was -0.0495 E-score. CCCTCTTC displayed a binding signal of -0.325 E-score. GATGTCAA registered a binding signal of 0.033 E-score. The value for ATAGTCCC was -0.245 E-score; that for GCCTATCC was -0.285 E-score. For the sequence GAAGTTAA, the binding signal worked out at 0.277 E-score.

Consider CACAACGG, for which the binding signal is -0.183 E-score. As for ACTCAAAG, the figure is -0.233 E-score; as for CAAACGTA, 0.125 E-score; as for AGCCTCAT, -0.263 E-score. Turning to ATTGGCTG, the binding signal is -0.134 E-score. Take AACTCTAA: the binding signal was determined as 0.0673 E-score. Take CGTTACAC: the binding signal is -0.039 E-score.

For CGCGACCA, the binding signal was -0.0832 E-score.

For the sequence GAGTTGCA, the binding signal stood at 0.0118 E-score. For ATAACCGC, the binding signal was -0.00309 E-score. The sequence CAATCAAA yielded a binding signal of 0.0994 E-score. The value for GTCAAGTA was 0.239 E-score; that for GCAATCGC was -0.0987 E-score. As to ACTCTATA, the binding signal is 0.126 E-score. The sequence ACTCAATG came in with a binding signal of 0.215 E-score. As for CTTCGCCA, the figure is -0.129 E-score; as for TGCTAACA, 0.0651 E-score. Regarding TACGTGCA, the binding signal turned out to be 0.108 E-score. As for ATACCAAA, the figure is 0.189 E-score; as for AATGAATG, -0.0226 E-score. On to AACGAACA, for which the binding signal came out at 0.136 E-score. Sequence ATTATATG displayed a binding signal of 0.269 E-score. The sequence ATAACGTG registered a binding signal of 0.084 E-score.

AGTTGTTG came in with a binding signal of 0.155 E-score. In the case of GGGACCAC, the binding signal is -0.293 E-score.

For the sequence CCCCGTGA, the binding signal was -0.334 E-score. Sequence ATGTGCTG returned a binding signal of -0.127 E-score. The value for CACGAGGG was -0.36 E-score; that for AACGTAAC was 0.0801 E-score; that for AAATTAGG was 0.148 E-score.

With ATCGTACC, the binding signal was -0.00745 E-score. AAGAGTGA: the binding signal worked out at 0.0519 E-score. Sequence CATCGGCG registered a binding signal of -0.00694 E-score. The sequence CACTGCGC had a binding signal of -0.221 E-score. In the case of CGGGCGAA, the binding signal is -0.268 E-score.

The sequence GGAATGTA yielded a binding signal of 0.103 E-score.

In turn, GGAAGGCA displayed a binding signal of -0.325 E-score. As for ACATCTCT, the figure is -0.12 E-score; as for AACGTGGG, -0.169 E-score. CAACAGTA: the binding signal was 0.316 E-score. With GGTCGGCA, the binding signal was -0.225 E-score. As for ATCAGGTA, the figure is 0.0696 E-score. Sequence CAGGAACC came in with a binding signal of -0.0635 E-score. The value for AATTCCCT was 0.0143 E-score; that for ATTTTGTG was 0.208 E-score. In turn, GATCGGGA yielded a binding signal of -0.0834 E-score. On to CCGGGCCC, for which the binding signal is -0.409 E-score. The value for CGCGGGCC was -0.275 E-score; that for CTGATTCA was -0.025 E-score; that for AATCCTAT was 0.192 E-score. AGGCAGAA returned a binding signal of -0.157 E-score. In the case of ACCGTGCT, the binding signal is -0.016 E-score. On to ACTGCCTA, for which the binding signal worked out at 0.0132 E-score.

The sequence TCCTGCCA returned a binding signal of -0.0317 E-score. As for CCATCTGA, the figure is -0.0252 E-score; as for CCGCAAGC, -0.337 E-score; as for AGGCAACG, -0.102 E-score. On to GTTTTCCA, for which the binding signal was -0.128 E-score. The value for GCGCGGCC was -0.375 E-score; that for GAGGTGTA was 0.203 E-score; that for GGTGTGAC was -0.26 E-score. In the case of ACAGAGCC, the binding signal is -0.122 E-score. GAACCACA gave a binding signal of -0.128 E-score.

In turn, CACCGCAA had a binding signal of -0.109 E-score. The sequence CAAAGATC had a binding signal of 0.0833 E-score. AATGGAGA came in with a binding signal of 0.163 E-score. As for ACGTATGA, the binding signal amounted to 0.0263 E-score. The value for CCCACACA was -0.116 E-score; that for TAGGCGAA was 0.0111 E-score. As for ATAAGCAA, the figure is 0.132 E-score; as for GTCCTTCA, -0.095 E-score; as for CTAAGGAA, 0.0227 E-score. The sequence TAAACCCA registered a binding signal of 0.00789 E-score.

As to CACCCTTC, the binding signal was -0.324 E-score. As for ACCTCGCG, the figure is -0.188 E-score; as for CTAATCGC, 0.18 E-score; as for CAATGAAA, -0.13 E-score. In turn, AGAGGGCC displayed a binding signal of -0.435 E-score.

The sequence GCTGGGAA displayed a binding signal of -0.265 E-score. As for AATACTTC, the binding signal was 0.235 E-score. As for CCTAGGAG, the figure is -0.131 E-score; as for AAGCCGTG, -0.213 E-score. ACAATACG: the binding signal is 0.0216 E-score.

As for CCATTCAA, the binding signal was -0.121 E-score. ATCATTCG displayed a binding signal of 0.0238 E-score. Turning to AATATGAC, the binding signal is 0.147 E-score. As for AAAAAAAG, the figure is -0.111 E-score; as for GCTCAGCC, -0.0544 E-score. Consider ACGTACTA, for which the binding signal was 0.287 E-score.

CTCTGGAC registered a binding signal of -0.187 E-score. AGCCGCCG displayed a binding signal of -0.276 E-score. As for GAATAGAC, the binding signal was -0.0551 E-score. In turn, CGTAATAA came in with a binding signal of 0.27 E-score. The value for CCTTTACG was -0.19 E-score; that for GTCATTTA was 0.171 E-score.

Take ACGAGGCT: the binding signal is -0.202 E-score.

TCGGCCAA: the binding signal was -0.13 E-score.

The sequence CATCGATA showed a binding signal of 0.283 E-score. Regarding GACGCGCC, the binding signal was -0.252 E-score.

In turn, GGACCACC showed a binding signal of -0.443 E-score. In the case of GCCCAGCC, the binding signal is -0.392 E-score.

Take CCAGAACA: the binding signal is -0.0297 E-score. Sequence GAGTGAGC showed a binding signal of -0.0409 E-score.

Sequence GTTTAGTA gave a binding signal of 0.272 E-score. With CCGCGTTC, the binding signal was -0.185 E-score. As for GATTGTTA, the figure is 0.233 E-score; as for AAATATGG, 0.261 E-score. As to AAGCAATG, the binding signal is -0.0894 E-score. As for CGTCCGGC, the figure is -0.137 E-score; as for GAATCTGA, -0.103 E-score. AATGTTTC showed a binding signal of 0.0499 E-score.

AAGCGCGG came in with a binding signal of -0.113 E-score. Sequence CAAGCGGA came in with a binding signal of 0.0458 E-score. The sequence AGGCCTCG displayed a binding signal of -0.277 E-score. Sequence AGCTCCAA displayed a binding signal of -0.151 E-score. Consider CCCGTTAC, for which the binding signal is -0.0164 E-score. In the case of CCGTGGCC, the binding signal is -0.268 E-score. GGTATCAC yielded a binding signal of 0.196 E-score. As for GCTTCTCC, the figure is -0.142 E-score. On to GTCGTAGA, for which the binding signal amounted to 0.0479 E-score. CGTTTCCC: the binding signal was -0.185 E-score.

Sequence TCTGAAGA showed a binding signal of -0.0674 E-score.

In the case of GAACCATC, the binding signal worked out at 0.0458 E-score.

The sequence ATGATGTG yielded a binding signal of 0.157 E-score.

ATGAATGG had a binding signal of -0.0647 E-score. The sequence CTATATAA showed a binding signal of 0.345 E-score.

Regarding CACCCAAA, the binding signal was -0.0657 E-score. As for ACATAGCC, the figure is -0.113 E-score. As for TCCCAGAA, the figure is -0.15 E-score; as for AGACAAAA, -0.0398 E-score; as for GCGCATAC, 0.0802 E-score. CCTCTACG returned a binding signal of -0.202 E-score. As for CCCAACTC, the figure is -0.0204 E-score; as for AAGTCCAT, 0.162 E-score. With CAGGTTAA, the binding signal turned out to be 0.13 E-score.

Consider ATTATAAG, for which the binding signal is 0.141 E-score. Regarding CAAATACC, the binding signal is 0.126 E-score. The value for ACAGACAG was 0.106 E-score; that for TACGGCCA was -0.2 E-score. As for AAAAAAAC, the figure is 0.185 E-score. For ATAGCCTC, the binding signal was -0.165 E-score. Sequence AAGTTACC displayed a binding signal of 0.172 E-score. Sequence CCAGTCGA gave a binding signal of -0.264 E-score. The value for AAAGTTCA was 0.137 E-score.
